{"source": "patent US20100320428A1", "about": "“GASEOUS DIELECTRICS WITH LOW GLOBAL WARMING POTENTIALS” (priority 2006, published 2010)", "origin": "cited, not measured here", "settings": "cited from earlier work", "note": "For at least one compound, name, drawing or mass did not settle the structure."}
{"smiles": "FN(OC(F)(F)F)C(F)(F)F", "values": [{"measurement": "MY BP", "result": "−25.0", "unit": "°C"}]}
{"smiles": "CC(F)F", "note": "[1,1-Difluoroethane]", "values": [{"measurement": "MY BP", "result": "−24.0", "unit": "°C"}]}
{"smiles": "C=C(F)F", "note": "[1,1-Difluoroethene]", "values": [{"measurement": "MY BP", "result": "−85.7", "unit": "°C"}]}
{"smiles": "C=C=C(F)F", "note": "[1,1-difluoro-propadiene]", "values": [{"measurement": "MY BP", "result": "−21.0", "unit": "°C"}]}
{"smiles": "C=C=C", "note": "[Allene]", "values": [{"measurement": "MY BP", "result": "−34.5", "unit": "°C"}]}
{"smiles": "[Ar]", "note": "[Argon]", "values": [{"measurement": "MY BP", "result": "−185.9", "unit": "°C"}]}
{"smiles": "[O]N(C(F)(F)F)C(F)(F)F", "note": "[Bis-trifluormethyl-nitroxid]", "values": [{"measurement": "MY BP", "result": "−20.0", "unit": "°C"}]}
{"smiles": "O=C=O", "note": "[Carbon dioxide]", "values": [{"measurement": "MY BP", "result": "−78.4", "unit": "°C"}]}
{"smiles": "FOC(F)(F)Cl", "note": "[Chlor-difluor-methyl-hypofluorit]", "values": [{"measurement": "MY BP", "result": "−25.0", "unit": "°C"}]}
{"smiles": "FN(F)C(F)(F)Cl", "note": "[Chlordifluordifluoraminomethan]", "values": [{"measurement": "MY BP", "result": "−28.0", "unit": "°C"}]}
{"smiles": "[SiH3]Cl", "note": "[Chlorosilane]", "values": [{"measurement": "MY BP", "result": "−30.3", "unit": "°C"}]}
{"smiles": "F[Si](F)(F)Cl", "note": "[Chlorotrifluorosilane]", "values": [{"measurement": "MY BP", "result": "−70.2", "unit": "°C"}]}
{"smiles": "N=C(F)F", "note": "[Difluorformimin]", "values": [{"measurement": "MY BP", "result": "−22.0", "unit": "°C"}]}
{"smiles": "C=CC", "note": "[Gas 1-Propene]", "values": [{"measurement": "MY BP", "result": "−47.7", "unit": "°C"}]}
{"smiles": "C=C(C)F", "note": "[Gas 2-fluoropropene, 2-fluoropropene]", "values": [{"measurement": "MY BP", "result": "−24.0", "unit": "°C"}]}
{"smiles": "FN(F)C(F)(F)N(F)F", "note": "[Hexafluormethandiamin]", "values": [{"measurement": "MY BP", "result": "−37.0", "unit": "°C"}]}
{"smiles": "S", "note": "[Hydrogen sulfide]", "values": [{"measurement": "MY BP", "result": "−59.5", "unit": "°C"}]}
{"smiles": "[Kr]", "note": "[Krypton]", "values": [{"measurement": "MY BP", "result": "−153.4", "unit": "°C"}]}
{"smiles": "FC(F)N(F)F", "note": "[N,N,1,1-Tetrafluormethylamin]", "values": [{"measurement": "MY BP", "result": "−43.0", "unit": "°C"}]}
{"smiles": "FN(F)C(F)(F)C(F)(F)F", "note": "[N,N-Difluor-pentafluoraethylamin]", "values": [{"measurement": "MY BP", "result": "−38.0", "unit": "°C"}]}
{"smiles": "FN(F)C(F)(F)F", "note": "[N,N-Difluor-trifluormethylamin]", "values": [{"measurement": "MY BP", "result": "−75.0", "unit": "°C"}]}
{"smiles": "FN(Cl)C(F)(F)F", "note": "[N-Chlor-N-fluor-trifluormethylamin]", "values": [{"measurement": "MY BP", "result": "−32.8", "unit": "°C"}]}
{"smiles": "FN(C(F)(F)F)C(F)(F)F", "note": "[N-Fluor-bis(trifluormethyl)-amin]", "values": [{"measurement": "MY BP", "result": "−37.0", "unit": "°C"}]}
{"smiles": "FN=C(F)F", "note": "[N-Fluor-difluormethanimin]", "values": [{"measurement": "MY BP", "result": "−101.0", "unit": "°C"}]}
{"smiles": "FN(F)F", "note": "[Nitrogen trifluoride]", "values": [{"measurement": "MY BP", "result": "−129.1", "unit": "°C"}]}
{"smiles": "FC(F)(F)OC(F)(F)C(F)(F)F", "note": "[Perfluormethylethylether]", "values": [{"measurement": "MY BP", "result": "−20.0", "unit": "°C"}]}
{"smiles": "F[Si](F)(F)F", "note": "[Tetrafuorosilane]", "values": [{"measurement": "MY BP", "result": "−86.0", "unit": "°C"}]}
{"smiles": "[O-][N+](F)(F)F", "note": "[Trifluoramine oxide]", "values": [{"measurement": "MY BP", "result": "−87.5", "unit": "°C"}]}
{"smiles": "FC(F)(F)P(F)(F)(F)F", "note": "[Trifluormethyl-tetrafluorphosphoran]", "values": [{"measurement": "MY BP", "result": "−35.0", "unit": "°C"}]}
{"smiles": "FC(F)(F)OCl", "note": "[Trifluormethylhypochlorit]", "values": [{"measurement": "MY BP", "result": "−47.0", "unit": "°C"}]}
{"smiles": "FN(F)OC(F)(F)F", "note": "[Trifluormethyloxydifluoramin]", "values": [{"measurement": "MY BP", "result": "−59.8", "unit": "°C"}]}
{"smiles": "F[SiH](F)F", "note": "[Trifluorosilane]", "values": [{"measurement": "MY BP", "result": "−95.2", "unit": "°C"}]}
{"smiles": "[Xe]", "note": "[Xenon]", "values": [{"measurement": "MY BP", "result": "−108.1", "unit": "°C"}]}
{"smiles": "F/N=N\\F", "note": "[cis-Difluorodiazine]", "values": [{"measurement": "MY BP", "result": "−105.8", "unit": "°C"}]}
{"smiles": "C1=CC1", "note": "[cyclopropene]", "values": [{"measurement": "MY BP", "result": "−36.0", "unit": "°C"}]}
{"smiles": "F[SiH](F)Cl", "note": "[difluoro chlorosilane]", "values": [{"measurement": "MY BP", "result": "−50.0", "unit": "°C"}]}
{"smiles": "F[Si](F)(Cl)Cl", "note": "[difluoro dichlorosilane]", "values": [{"measurement": "MY BP", "result": "−31.8", "unit": "°C"}]}
{"smiles": "C[SiH](F)F", "note": "[difluoro-methyl-silane]", "values": [{"measurement": "MY BP", "result": "−35.6", "unit": "°C"}]}
{"smiles": "CB(C)F", "note": "[fluoro-dimethyl-borane]", "values": [{"measurement": "MY BP", "result": "−44.0", "unit": "°C"}]}
{"smiles": "C[SiH2]F", "note": "[fluoro-methyl-silane]", "values": [{"measurement": "MY BP", "result": "−44.0", "unit": "°C"}]}
{"smiles": "F[SiH3]", "note": "[fluorosilane]", "values": [{"measurement": "MY BP", "result": "−98.0", "unit": "°C"}]}
{"smiles": "[CH3][GeH3]", "note": "[methylgermane]", "values": [{"measurement": "MY BP", "result": "−23.0", "unit": "°C"}]}
{"smiles": "C[Si](F)(F)F", "note": "[methyltrifluorosilane]", "values": [{"measurement": "MY BP", "result": "−30.0", "unit": "°C"}]}
{"smiles": "FC(F)=[Se]", "note": "[selenocarbonyl difluoride]", "values": [{"measurement": "MY BP", "result": "−28.0", "unit": "°C"}]}
{"smiles": "N#S(F)(F)F", "note": "[thiazyl trifluoride]", "values": [{"measurement": "MY BP", "result": "−27.1", "unit": "°C"}]}
{"smiles": "FC(F)=S", "note": "[thiocarbonyl difluoride]", "values": [{"measurement": "MY BP", "result": "−46.0", "unit": "°C"}]}
{"smiles": "F/C=C/C(F)(F)F", "note": "[trans HFO-1234ze]", "values": [{"measurement": "MY BP", "result": "−19.0", "unit": "°C"}]}
{"smiles": "F/N=N/F", "note": "[trans-Difluorodiazine]", "values": [{"measurement": "MY BP", "result": "−111.5", "unit": "°C"}]}
{"smiles": "FC(F)(F)[SiH3]", "note": "[trifluoromethyl-silane]", "values": [{"measurement": "MY BP", "result": "−38.3", "unit": "°C"}]}
